# Reference: PubChem BioAssay (Tox21)
# Inconclusive means that the source gave no clear call. Such entries were picked first, then a sample of the others. For some assays here: Potencies of inconclusive entries are doubtful fits and often do not repeat. The source made the active and inactive calls. Calls follow the shape of the dose curve; as a rule, active = well fitted curve in the direction sought with a large enough effect in the repeat runs; inconclusive = weak or mixed curves; inactive = no such curve, though single readings can be large; an effect the other way counts as inactive or inconclusive.
# Tests used:
# [1] = molecular target: Nuclear receptor subfamily 1 group I member 2 (Rattus norvegicus) (UniProt Q9R1A7); assay: Rat pregnane X receptor (rPXR) activation by small molecules, qHTS assay (AID 1346983); details: rPXR luciferase reporter cells, One-Glo luminescence, 24 h; max activation: active compounds read high; also: nearly all actives have a fitted effect of over 20% in size; also: potency is read from the fitted curve at half-maximal effect; as to max activation: % is scaled to controls: 0 for no effect and ±100 for the full control effect
# Sequence of UniProt Q9R1A7 (Q9R1A7 whole entry, looked up): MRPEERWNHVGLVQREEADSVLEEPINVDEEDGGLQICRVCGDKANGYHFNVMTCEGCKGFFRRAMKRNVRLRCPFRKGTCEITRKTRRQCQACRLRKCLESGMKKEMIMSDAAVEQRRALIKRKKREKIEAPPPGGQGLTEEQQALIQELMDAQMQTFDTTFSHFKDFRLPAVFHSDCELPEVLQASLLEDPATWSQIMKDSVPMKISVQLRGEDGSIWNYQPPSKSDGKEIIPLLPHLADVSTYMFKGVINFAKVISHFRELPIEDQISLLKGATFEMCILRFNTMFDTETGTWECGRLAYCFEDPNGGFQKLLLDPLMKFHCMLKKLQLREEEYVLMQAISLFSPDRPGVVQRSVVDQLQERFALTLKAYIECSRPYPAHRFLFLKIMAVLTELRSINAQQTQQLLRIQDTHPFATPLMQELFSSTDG
# Summary of the method: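 Cell-based rPXR luciferase reporter assay, 2,000 cells per well, rested 5hr at 37 C before compound addition in DMSO, then 24 hr at 37 C. One-Glo reagent was added and luminescence read after 30 min at room temperature.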
# [2] = molecular target: Nuclear receptor subfamily 1 group I member 2 (Homo sapiens) (UniProt O75469); assay: CYP3A4 induction through human pregnane X receptor (PXR) by small molecules, qHTS assay (AID 1346984); details: DPX-2 HepG2 PXR, CYP3A4-luciferin luminescence, 24 h; series mostly up to 46.1 µM; also: potency is read from the fitted curve at half-maximal effect; nearly all actives have a fitted effect of over 40% in size
# Summary of the method: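 DPX-2 reporter cells; 24h cpd, 37C; Luciferin-IPA 3uM final x3h; One-Glo 30 min RT; lumi read.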
# [3] = molecular target: Voltage-gated inwardly rectifying potassium channel KCNH2 (Homo sapiens) (UniProt Q12809); assay: Human Ether-a-go-go-Related Gene (hERG) channel small molecule antagonists: fluorescence cell-based qHTS assay (AID 1671200); details: hERG-U2OS cells, FluxOR thallium flux fluorescence; series mostly up to 76.8 µM; also: nearly all actives have a fitted effect of over 50% in size; also: potency is read from the fitted curve at half-maximal effect
# Sequence of UniProt Q12809 (Q12809 whole entry, looked up): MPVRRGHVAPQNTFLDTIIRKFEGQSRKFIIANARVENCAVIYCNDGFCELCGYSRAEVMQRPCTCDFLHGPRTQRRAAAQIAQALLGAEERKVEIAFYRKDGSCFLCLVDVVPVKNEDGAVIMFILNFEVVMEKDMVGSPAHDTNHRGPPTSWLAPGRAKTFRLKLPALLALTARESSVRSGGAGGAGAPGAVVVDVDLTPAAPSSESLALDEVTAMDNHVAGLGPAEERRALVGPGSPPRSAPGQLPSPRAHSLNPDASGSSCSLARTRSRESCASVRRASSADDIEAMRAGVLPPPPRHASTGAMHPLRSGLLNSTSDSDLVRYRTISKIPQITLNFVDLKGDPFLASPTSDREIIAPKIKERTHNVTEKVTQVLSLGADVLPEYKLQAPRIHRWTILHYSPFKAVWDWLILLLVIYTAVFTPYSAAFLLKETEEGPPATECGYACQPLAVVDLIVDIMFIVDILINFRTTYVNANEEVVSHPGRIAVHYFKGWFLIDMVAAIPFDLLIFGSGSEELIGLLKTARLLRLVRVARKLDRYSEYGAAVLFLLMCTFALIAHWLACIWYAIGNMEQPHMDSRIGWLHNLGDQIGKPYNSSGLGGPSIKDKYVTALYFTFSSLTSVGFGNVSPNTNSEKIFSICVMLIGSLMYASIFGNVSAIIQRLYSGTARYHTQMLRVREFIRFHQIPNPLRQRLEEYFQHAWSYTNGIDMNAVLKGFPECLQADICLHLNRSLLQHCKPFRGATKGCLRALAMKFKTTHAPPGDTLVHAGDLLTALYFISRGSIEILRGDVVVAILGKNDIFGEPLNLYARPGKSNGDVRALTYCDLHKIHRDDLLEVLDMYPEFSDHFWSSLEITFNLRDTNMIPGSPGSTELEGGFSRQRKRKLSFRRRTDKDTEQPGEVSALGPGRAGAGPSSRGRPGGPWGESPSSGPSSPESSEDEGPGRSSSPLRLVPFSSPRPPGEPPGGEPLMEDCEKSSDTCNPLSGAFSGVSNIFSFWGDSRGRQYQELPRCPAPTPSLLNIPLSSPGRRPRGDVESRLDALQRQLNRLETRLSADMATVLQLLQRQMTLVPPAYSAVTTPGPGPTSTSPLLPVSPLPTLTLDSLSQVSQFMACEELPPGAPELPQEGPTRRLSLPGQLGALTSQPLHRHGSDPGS
# Summary of the method: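 Quantitative HTS in hERG-U2OS cells: thallium entry through the channel reports activity, read as continuous 480/540 nm fluorescence over 2 min after stimulus addition.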
# [4] = Caspase-3/7 induction in CHO-K1 cells by small molecules, qHTS cell viability counter screen (AID 1346979); details: CellTiter-Fluor fluorescence, 17 h; series mostly up to 92.4 µM; also: nearly all actives have a fitted effect of over 35% in size; also: potency is read from the fitted curve at half-maximal effect
# Summary of the method: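 In the same wells as the caspase read, viability of compound-treated wild-type CHO-K1 cells was assessed using CellTiter-Fluor, added after 16hr at 37C and measured by fluorescence following 1hr further incubation.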
# [5] = molecular target: Nuclear receptor subfamily 1 group I member 2 (Homo sapiens) (UniProt O75469); assay: Human pregnane X receptor (PXR) activation by small molecules, qHTS assay (AID 1346985); details: DPX-2 HepG2 CYP3A4-luciferase, 24 h; series mostly up to 38.3 µM; also: nearly all actives have a fitted effect of over 40% in size; also: potency is read from the fitted curve at half-maximal effect; as to activation: % is scaled to controls: 0 for no effect and ±100 for the full control effect
# Summary of the method: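 DPX-2 cells (HepG2 co-transfected with a PXR response element and a CYP3A4-promoter luciferase construct) were seeded at 2,000 per well, rested 5 hr at 37C, then exposed to DMSO-dissolved compounds for 24 hr. Activation was read as luciferase luminescence.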
# [6] = molecular target: Cytochrome P450 2C9 (Homo sapiens) (UniProt P11712); assay: Cytochrome P450 Family 2 Subfamily C Member 9 (CYP2C9) small molecule antagonists: luciferase reporter qHTS assay (AID 1671198); details: P450-Glo CYP2C9 enzyme assay, luciferin luminescence; series mostly up to 115 µM; also: nearly all actives have a fitted effect of over 50% in size; also: potency is read from the fitted curve at half-maximal effect
# Sequence of UniProt P11712 (P11712 whole entry, looked up): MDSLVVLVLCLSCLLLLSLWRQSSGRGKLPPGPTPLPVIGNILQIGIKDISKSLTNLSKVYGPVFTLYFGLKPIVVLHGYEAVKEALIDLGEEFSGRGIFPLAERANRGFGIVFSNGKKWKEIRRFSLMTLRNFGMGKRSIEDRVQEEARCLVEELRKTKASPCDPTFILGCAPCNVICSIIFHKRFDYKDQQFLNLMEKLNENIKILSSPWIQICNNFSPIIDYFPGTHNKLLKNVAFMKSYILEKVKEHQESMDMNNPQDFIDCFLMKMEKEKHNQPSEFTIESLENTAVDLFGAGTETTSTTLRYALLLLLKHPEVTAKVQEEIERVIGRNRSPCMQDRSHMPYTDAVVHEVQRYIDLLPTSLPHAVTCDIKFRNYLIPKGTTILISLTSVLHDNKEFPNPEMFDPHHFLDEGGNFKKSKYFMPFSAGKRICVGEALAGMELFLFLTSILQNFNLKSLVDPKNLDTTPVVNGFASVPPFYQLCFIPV
# Summary of the method: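 CYP2C9 activity was measured with a P450-Glo proluciferin substrate. Enzyme–substrate mix was held with compound for 10 min at room temperature, then NADPH regeneration solution was added for 1 h at 37C. Luciferin product was read as luminescence.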
# [7] = molecular target: Cytochrome P450 2D6 (Homo sapiens) (UniProt P10635); assay: Cytochrome P450 Family 2 Subfamily D Member 6 (CYP2D6) small molecule antagonists: luciferase reporter qHTS assay (AID 1671196); details: P450-Glo CYP2D6 enzyme assay, luciferin luminescence, 1 h; series mostly up to 115 µM; also: nearly all actives have a fitted effect of over 50% in size; also: potency is read from the fitted curve at half-maximal effect
# Sequence of UniProt P10635 (P10635 whole entry, looked up): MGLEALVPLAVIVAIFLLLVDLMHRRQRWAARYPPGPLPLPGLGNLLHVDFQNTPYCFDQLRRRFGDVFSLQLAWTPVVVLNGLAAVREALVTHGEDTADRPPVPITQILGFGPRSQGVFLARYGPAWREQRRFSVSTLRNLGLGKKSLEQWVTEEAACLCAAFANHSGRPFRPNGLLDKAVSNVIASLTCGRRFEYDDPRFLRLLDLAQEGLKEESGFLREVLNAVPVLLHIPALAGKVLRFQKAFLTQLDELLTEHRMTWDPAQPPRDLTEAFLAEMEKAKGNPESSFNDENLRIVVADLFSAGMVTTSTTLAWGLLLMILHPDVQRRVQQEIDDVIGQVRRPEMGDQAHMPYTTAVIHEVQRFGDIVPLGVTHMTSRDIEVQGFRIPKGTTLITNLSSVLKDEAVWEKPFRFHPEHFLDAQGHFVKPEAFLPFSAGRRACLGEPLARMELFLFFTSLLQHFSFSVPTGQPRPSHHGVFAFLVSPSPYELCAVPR
# Summary of the method: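 Inhibition of CYP2D6 was gauged by loss of luminescence, since light produced tracks the luciferin generated from a proluciferin substrate. A 10 min room-temperature preincubation preceded 1 h NADPH-supported turnover.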
# [8] = molecular target: Cytochrome P450 1A2 (Homo sapiens) (UniProt P05177); assay: Cytochrome P450 Family 1 Subfamily A Member 2 (CYP1A2) small molecule antagonists: luciferase reporter qHTS assay (AID 1671199); details: P450-Glo CYP1A2 enzyme, luciferin luminescence, 1 h; series mostly up to 115 µM; also: nearly all actives have a fitted effect of over 50% in size; also: potency is read from the fitted curve at half-maximal effect
# Sequence of UniProt P05177 (P05177 whole entry, looked up): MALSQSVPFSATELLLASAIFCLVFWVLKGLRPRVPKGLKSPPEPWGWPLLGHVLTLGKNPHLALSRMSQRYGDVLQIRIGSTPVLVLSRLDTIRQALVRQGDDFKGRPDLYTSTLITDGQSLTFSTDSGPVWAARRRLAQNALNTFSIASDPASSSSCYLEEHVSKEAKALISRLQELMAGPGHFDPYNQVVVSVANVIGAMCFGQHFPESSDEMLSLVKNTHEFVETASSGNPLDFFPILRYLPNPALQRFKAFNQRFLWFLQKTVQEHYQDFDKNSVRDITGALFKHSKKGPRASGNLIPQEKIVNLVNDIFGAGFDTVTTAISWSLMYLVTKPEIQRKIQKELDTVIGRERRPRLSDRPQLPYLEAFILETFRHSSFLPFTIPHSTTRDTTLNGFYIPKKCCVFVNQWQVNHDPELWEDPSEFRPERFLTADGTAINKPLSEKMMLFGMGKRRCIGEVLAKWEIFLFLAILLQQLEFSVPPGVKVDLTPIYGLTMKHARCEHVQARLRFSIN
# Summary of the method: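 Signal from luciferin formed by CYP1A2 from a proluciferin substrate is read as luminescence, expressed in relative luminescence units. Compounds sit with enzyme 10 min, NADPH-driven reaction runs 1 h, all at room temperature.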
# [9] = molecular target: Cytochrome P450 2C19 (Homo sapiens) (UniProt P33261); assay: Cytochrome P450 Family 2 Subfamily C Member 19 (CYP2C19) small molecule antagonists: luciferase reporter qHTS assay (AID 1671197); details: P450-Glo CYP2C19 enzyme, luciferin luminescence, 1 h; series mostly up to 115 µM; also: nearly all actives have a fitted effect of over 65% in size; also: potency is read from the fitted curve at half-maximal effect
# Sequence of UniProt P33261 (P33261 whole entry, looked up): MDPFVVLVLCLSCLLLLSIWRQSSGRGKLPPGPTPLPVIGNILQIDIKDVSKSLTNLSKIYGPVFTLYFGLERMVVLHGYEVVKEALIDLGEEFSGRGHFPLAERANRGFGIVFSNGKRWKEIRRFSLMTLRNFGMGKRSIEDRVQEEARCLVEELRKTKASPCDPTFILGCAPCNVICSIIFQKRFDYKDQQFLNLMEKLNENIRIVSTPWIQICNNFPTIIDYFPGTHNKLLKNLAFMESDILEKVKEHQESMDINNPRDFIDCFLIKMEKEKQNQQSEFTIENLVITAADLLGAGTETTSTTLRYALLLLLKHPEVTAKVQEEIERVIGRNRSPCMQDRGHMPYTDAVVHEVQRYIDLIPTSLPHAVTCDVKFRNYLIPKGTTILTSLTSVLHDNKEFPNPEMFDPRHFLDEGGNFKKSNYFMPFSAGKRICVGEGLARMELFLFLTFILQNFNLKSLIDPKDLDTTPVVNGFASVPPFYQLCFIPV
# Summary of the method: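 Luminescent readout of CYP2C19 activity: luciferin product detected 20 min after adding detection reagent. Before that, compound and enzyme-substrate mix preincubated 10 min at room temperature; NADPH-regenerating system started a 1 h, 37C reaction. Ketoconazole as positive control.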
# [10] = molecular target: Cytochrome P450 3A4 (Homo sapiens) (UniProt P08684); assay: Cytochrome P450 Family 3 Subfamily A Member 4 (CYP3A4) small molecule antagonists: luciferase reporter qHTS assay (AID 1671201); details: P450-Glo CYP3A4 enzyme, luciferin luminescence, 1 h; series mostly up to 115 µM
# Sequence of UniProt P08684 (P08684 whole entry, looked up): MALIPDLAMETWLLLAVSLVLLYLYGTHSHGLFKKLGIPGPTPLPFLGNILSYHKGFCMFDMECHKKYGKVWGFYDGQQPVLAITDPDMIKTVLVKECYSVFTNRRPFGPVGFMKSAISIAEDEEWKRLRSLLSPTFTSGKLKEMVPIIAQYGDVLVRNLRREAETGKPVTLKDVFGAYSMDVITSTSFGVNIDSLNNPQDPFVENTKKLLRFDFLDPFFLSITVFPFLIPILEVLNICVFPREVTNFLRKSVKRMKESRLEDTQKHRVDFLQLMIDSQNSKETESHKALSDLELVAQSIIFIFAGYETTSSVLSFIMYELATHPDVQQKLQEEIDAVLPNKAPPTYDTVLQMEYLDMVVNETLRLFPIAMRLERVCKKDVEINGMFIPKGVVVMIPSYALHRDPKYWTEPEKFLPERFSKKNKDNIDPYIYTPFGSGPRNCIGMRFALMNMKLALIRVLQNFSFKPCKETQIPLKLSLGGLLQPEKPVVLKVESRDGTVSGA
# Summary of the method: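 Inhibition of CYP3A4 is measured as loss of light: the enzyme converts a proluciferin substrate to luciferin, detected luminescently. Reaction ran 1 h at room temperature with NADPH regeneration after a 10 min compound preincubation.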
# Tags tell the direction and shape of the fitted curve.
smiles,measurement,setting,value
COc1ccc2nc(NC(=O)Nc3ccccc3)sc2c1,Potency,[1],active: 0.199 µM
same,Potency,[2],"inconclusive: 0.224 µM [activator, full curve, poor fit]"
c1cc(CN2CCCCC2)cc(OCCCNc2nc3ccccc3s2)c1,Potency,[3],active: 8.49 µM
Cc1ncc([N+](=O)[O-])n1CC(C)O (stereo not drawn),Potency,[4],inactive
same,Potency,[5],"inconclusive: 31.6 µM [activator, single point]"
same,Potency,[6],inactive
same,Potency,[3],inactive
CC(C)(C)C(=O)C(Oc1ccc(Cl)cc1)n1ccnc1 (stereo not drawn),Potency,[4],inconclusive: 33.5 µM [cytotoxic]
same,Potency,[1],active: 12.6 µM
same,Potency,[2],"inconclusive: 1.26 µM [activator, full curve, poor fit]"
same,Potency,[5],active: 15.8 µM
same,Potency,[7],"inconclusive: 30.9 µM [inhibitor, partial curve]"
CCOc1cccc(N)c1,Potency,[4],inactive
same,Potency,[7],"inconclusive: 17.7 µM [inhibitor, partial curve]"
same,Potency,[8],active: 35.4 µM
CCCc1nn(C)c2c(=O)[nH]c(-c3cc(S(=O)(=O)N4CCN(C)CC4)ccc3OCC)nc12,Potency,[4],inactive
same,Potency,[1],"inconclusive: 22.4 µM [activator, partial curve]"
same,Potency,[7],inactive
same,Potency,[8],inactive
OC(CN1CCC(Cc2ccc(F)cc2)CC1)c1ccc(Cl)cc1 (stereo not drawn),Potency,[4],inconclusive: 33.5 µM [cytotoxic]
same,Potency,[2],"inconclusive: 12.6 µM [activator, single point]"
same,Potency,[7],active: 0.138 µM
CN(C)Cc1ccccc1,Potency,[4],inactive
same,Potency,[7],active: 18 µM
same,Potency,[9],inactive
same,Potency,[8],"inconclusive: 25.4 µM [inhibitor, full curve]"
CCCCCCCCCCCCCCCCOS(=O)(=O)O,Potency,[4],"inconclusive: 29.8 µM [cytotoxic, single point]"
same,Potency,[7],"inconclusive: 34.7 µM [inhibitor, partial curve, poor fit]"
same,Potency,[6],"inconclusive: 38.9 µM [inhibitor, single point]"
CCOC(=O)COC(=O)c1cc(Oc2ccc(C(F)(F)F)cc2Cl)ccc1[N+](=O)[O-],Potency,[4],"inconclusive: 68.6 µM [cytotoxic, single point]"
same,Potency,[7],active: 15.9 µM
same,Potency,[3],"inconclusive: 21.9 µM [inhibitor, partial curve, poor fit]"
Oc1ccc(Nc2ccccc2)cc1,Potency,[4],"inconclusive: 68.6 µM [cytotoxic, single point]"
same,Potency,[7],active: 63.3 µM
same,Potency,[10],inactive
CCCCNc1ccc(C(=O)OCCOCCOCCOCCOCCOCCOCCOCCOCCOC)cc1,Potency,[4],"inconclusive: 33.5 µM [cytotoxic, single point]"
same,Potency,[9],"inconclusive: 43.6 µM [inhibitor, single point]"
NCCOCCN,Potency,[4],inactive
same,Potency,[7],inconclusive: 63.3 µM [inhibitor]
same,Potency,[8],active: 17.8 µM
CCCCC(CC)CCC(CC(C)C)OS(=O)(=O)O (stereo not drawn),Potency,[4],"inconclusive: 54.5 µM [rising, partial curve, poor fit]"
same,max activation,[1],inactive: -2.27%
same,Potency,[5],inactive
same,Potency,[9],"inconclusive: 89.4 µM [inhibitor, single point]"
same,Potency,[6],active: 31.7 µM
O=C(Nc1ccc(Cl)c(Cl)c1)C1CC1,Potency,[4],"inconclusive: 33.5 µM [cytotoxic, single point]"
same,Potency,[5],"inconclusive: 15.8 µM [activator, single point]"
CCCCc1ccc2nc(NC(=O)OC)[nH]c2c1,Potency,[4],active: 1.19 µM
same,Potency,[1],"inconclusive: 3.98 µM [activator, partial curve, poor fit]"
same,Potency,[2],"inconclusive: 3.98 µM [activator, full curve, poor fit]"
same,Potency,[5],active: 4.47 µM
same,Potency,[6],inactive
CCCCCCCCCCCCCCC1CO1 (stereo not drawn),Potency,[4],inactive
same,Potency,[7],inactive
same,Potency,[8],"inconclusive: 63.3 µM [inhibitor, partial curve, poor fit]"
FC(F)(Cl)C(F)(Cl)Cl,Potency,[4],inactive
same,Potency,[7],"inconclusive: 79.3 µM [inhibitor, single point]"
same,Potency,[8],"inconclusive: 39.7 µM [inhibitor, partial curve]"
COC(=O)C1=C(C)NC(C)=C(C(=O)OC(C)C)C1c1cccc2nonc12 (stereo not drawn),Potency,[4],active: 26.6 µM
same,Potency,[5],active: 0.891 µM
CNC(=S)NC,Potency,[4],"inconclusive: 68.6 µM [cytotoxic, single point]"
same,Potency,[7],inconclusive: 71 µM [inhibitor]
same,Potency,[8],active: 31.7 µM
C=COCCOCCOCCOC=C,Potency,[4],inactive
same,Potency,[7],inactive
CC(C)(Oc1ccc(C2CC2(Cl)Cl)cc1)C(=O)O (stereo not drawn),Potency,[4],"inconclusive: 52.3 µM [rising, partial curve, poor fit]"
same,Potency,[7],inactive
same,Potency,[9],inactive
